Experimental data reported in the supplement of paper PMC10338343.
± gives the standard deviation. The entries are a selection whose mix differs from that of the whole data set.

Tested on: MIWI (PIWIL1) piRISC loaded with piRNA #1 (30 nt)
Experiment: pre-steady-state target cleavage rate (min^-1); MIWI and MILI are mouse PIWI proteins and EfPiwi is from a freshwater sponge; tags in brackets are library labels; higher = faster piRNA-guided slicing of the target
Settings: guide: piRNA #1 5'p-UGAGGUAGUAGGUUGUAUAGUAUCCAGAGG; auxiliary factor: 500 nM mouse GTSF1
In short: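 The pre-steady-state cleavage rate was obtained by Cleave-'n-Seq with a burst-and-steady-state fit. A transcribed, DNA-blocked target RNA library (0.1 nM) was mixed with 1 nM active affinity-purified piRISC carrying one synthetic guide, with or without 500 nM GTSF1 partner protein, in HEPES–potassium acetate buffer at 33 °C for 0–8 or 0–960 min. Uncleaved targets were sequenced and normalised to depth and to weakly complementary targets, with three trials pooled and k3 capped at 0.0001 min^-1.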

Row | Sequence | pre-steady-state target cleavage rate
1 | GGAGACGAUAUUAUACAACCUACUACCUCA | 1.75 ± 0.1
2 | GGAGAGGAUACAUACAACCUACUACCUCA | 1.11 ± 0.085
3 | GCUCUGGAUACAAUACAACCUACAACCUCA | 1.09 ± 0.071
4 | GGAGACCUAUGAUAUGUUGCACUACCUCA | 0.003 ± 0.0019
5 | GGAGUGCUAACUAUACAACCUACUACCUCA | 1.22 ± 0.082
6 | GGAGUGGAUACUAUACAACCUAGAUGGAGA [g9:g26:cont:t1A] | < 0.0001
7 | GGAGACCUAUGAUAUGUACCUACUACCCCA | < 0.0001
8 | GGAGACCUAUGAUAUGUCCCUACUACCUCA | < 0.0001
9 | GGAGACCAUACUGAUACAACCUACUACCUCA | 0.785 ± 0.064
10 | GGAGACCUAUCUAUACAACCUACUACUCUCA | 0.723 ± 0.056
11 | GGAGACGAUACUAUACAACCUACUACCGCA | 0.805 ± 0.055
12 | GCUCUGGAUACUAACAACCUACUACCUCA | 1.5 ± 0.1
13 | CCUCUGGAUACUAUACAACCUACUACCAUCA | 1.66 ± 0.087
14 | GGUCUGGAUACUAUACUACCUACUACGUCA | 0.855 ± 0.053
15 | GGAGACCUUACUGAUACAACCUACUACCUCA | 0.642 ± 0.068
